According to the supplement of paper PMC10126150:
Values marked as one replicate rest on one cluster of the flow cell; about a third of the high ones do not repeat.

Each sequence was assayed on ATP (assay: switch fluorescence ratio, 500 uM ATP over buffer (Cy3 cluster intensity, sum of 5 cycles each) (fold (ratio)); higher = stronger signal-on switching upon ATP binding; sequences stand for … in TCGTCGGCAGCGTCAGATGTGTATAAGAGACAGTTTTTTTTTTTTTTTTTTTTTTTTT…TC). Conditions: aptamer strand: ATP DNA aptamer (quencher-CACCTGGGGGAGTATTGCGGAGGAAGG + anchor), 100 nM annealed; ATP concentration: 500 uM; one replicate.
How it was run: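 Switching-strand clusters labelled with Cy3 on a modified Illumina MiSeq flow-cell were annealed to 100 nM quencher-labelled ATP aptamer, imaged in selection buffer, and re-imaged after 15 min with 500 uM ATP at 22 °C. This was done over five cycles with NaOH stripping and re-annealing in between. The fluorescence ratio is summed target-cycle over summed buffer-cycle Cy3 intensity per cluster, averaged per switch-domain sequence, excluding clusters outside 100-1000 RFU.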
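Note: ATP exposure 15 min at 22 °C before imaging.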

Row | Sequence | switch fluorescence ratio
1 | CGTACGTCGA | 1
2 | CGTACGTTTG | 1.02
3 | CGTACTATG | 0.994
4 | CGTACTCAAA | 1.05
5 | CGTACTGCTA | 1.07
6 | CGTACTTAAT | 1.08
7 | CGTACTTCAT | 1.01
8 | CGTAGATACG | 0.992
9 | CGTAGCAGGA | 1.63
10 | CGTAGCTCGT | 1.04
11 | CGTAGGATAG | 1.05
12 | CGTAGGTGT | 1.06
13 | CGTAGTAAAA | 0.972
14 | CGTAGTTGGC | 0.929
15 | CGTATAAGAA | 1.01
16 | CGTATAGGGC | 0.977
17 | CGTATAGTCA | 1.01
18 | CGTATATCGA | 0.983
19 | CGTATCGAAT | 0.994
20 | CGTATGGGCC | 0.974
21 | CGTATTCCGC | 1.16
22 | CGTCAAAAGA | 1.11
23 | CGTCAACCGC | 1.23
24 | CGTCAAGCAC | 3.04
25 | CGTCACAGTA | 1.03
26 | CGTCAGACGG | 0.978

Row | Sequence | switch fluorescence ratio
27 | CGTCATGGC | 0.94
28 | CGTCATGGGA | 1.01
29 | CGTCATGGTG | 1.04
30 | CGTCATTTCT | 0.981
31 | CGTCCAACTA | 1.08
32 | CGTCCCTTCT | 1.02
33 | CGTCCGAAAC | 2.8
34 | CGTCCGGTCT | 1.03
35 | CGTCCTGGTA | 1.07
36 | CGTCCTTTAC | 3.24
37 | CGTCGAATGT | 0.995
38 | CGTCGACCAT | 0.977
39 | CGTCGCGATG | 1.08
40 | CGTCGTGTCA | 0.938
41 | CGTCGTTGCC | 0.987
42 | CGTCTGAAGC | 0.955
43 | CGTCTGATGT | 1.02
44 | CGTCTTCCAA | 1.1
45 | CGTCTTCTTT | 0.973
46 | CGTCTTGGCA | 1.04
47 | CGTCTTTCTA | 0.97
48 | CGTCTTTTCC | 0.986
49 | CGTGAACAAC | 1.03
50 | CGTGAAGACC | 1.03
51 | CGTGAATTCG | 0.991
52 | CGTGACAGTA | 1.02

Row | Sequence | switch fluorescence ratio
53 | CGTGACGGGT | 0.964
54 | CGTGACGTTA | 1.06
55 | CGTGAGGAAC | 0.994
56 | CGTGATTGGG | 0.983
57 | CGTGCCTGTG | 0.985
58 | CGTGCGACTT | 1.02
59 | CGTGCGGTGC | 1.25
60 | CGTGCGTTGG | 0.979
61 | CGTGGACATG | 0.861
62 | CGTGGAGTAT | 1.01
63 | CGTGGCGTTT | 0.982
64 | CGTGGGCTTG | 0.975
65 | CGTGGGTTGC | 0.974
66 | CGTGGTGTG | 0.964
67 | CGTGGTTTAA | 1.01
68 | CGTGTAAGCG | 1.02
69 | CGTGTACTGT | 0.954
70 | CGTGTATAA | 1.18
71 | CGTGTATAG | 1.03
72 | CGTGTATGCG | 0.906
73 | CGTGTCACAT | 1
74 | CGTGTCACGT | 0.988
75 | CGTGTCATTG | 1.01
76 | CGTGTCTCCC | 1.3
77 | CGTGTCTTGG | 1.01
78 | CGTGTGAATG | 0.918

Row | Sequence | switch fluorescence ratio
79 | CGTGTGCGTA | 0.971
80 | CGTGTGGAAC | 0.988
81 | CGTGTGTCCA | 1.01
82 | CGTGTTAATC | 1
83 | CGTTAAGTCC | 1.12
84 | CGTTACCGAG | 1.02
85 | CGTTAGAAAG | 0.966
86 | CGTTAGTAGT | 1
87 | CGTTATATGC | 1.13
88 | CGTTATGCCC | 0.997
89 | CGTTCAGGCC | 1.02
90 | CGTTCATAAA | 0.969
91 | CGTTCATGTA | 0.929
92 | CGTTCCAATT | 1.08
93 | CGTTCCTGTG | 1.08
94 | CGTTCCTTA | 1.02
95 | CGTTCGAACT | 1.01
96 | CGTTCGGTCC | 1.03
97 | CGTTCTACAT | 0.998
98 | CGTTCTCTCA | 1.01
99 | CGTTCTGAGG | 0.974
100 | CGTTGAATCG | 1
101 | CGTTGACGTT | 1.03
102 | CGTTGAGACT | 0.996
103 | CGTTGAGGCG | 0.931
104 | CGTTGAGTAA | 1

Row | Sequence | switch fluorescence ratio
105 | CGTTGGACCT | 1.05
106 | CGTTGGGGCT | 1.15
107 | CGTTGTATTT | 0.983
108 | CGTTGTTGTC | 1.02
109 | CGTTTAATGT | 1.09
110 | CGTTTAGCC | 0.99
111 | CGTTTCCGTT | 1.08
112 | CGTTTGCGCC | 0.943
113 | CGTTTGCTCC | 1.1
114 | CGTTTGTTAC | 1.11
115 | CGTTTTACAT | 1
116 | CGTTTTCACA | 0.959
117 | CGTTTTCATT | 0.955
118 | CGTTTTCTTT | 1.01
119 | CGTTTTGGG | 0.977
120 | CTAAAAGCCC | 1.48
121 | CTAAAAGGAA | 0.968
122 | CTAAACCGTA | 0.996
123 | CTAAAGCCGG | 0.974
124 | CTAAATCTTG | 1.02
125 | CTAACATT | 1
126 | CTAACCCCGC | 1.15
127 | CTAACGATAT | 1.09
128 | CTAACGGGGG | 0.993
129 | CTAACTATAA | 1.02
130 | CTAAGAATTA | 0.992

Row | Sequence | switch fluorescence ratio
131 | CTAAGAGGCA | 1
132 | CTAAGAGGTG | 1.05
133 | CTAAGCAGAC | 2.09
134 | CTAAGCCCAT | 1.17
135 | CTAAGCGTCG | 0.987
136 | CTAAGGGGTA | 0.986
137 | CTAAGTTGT | 1
138 | CTAAGTTTTA | 1.03
139 | CTAATCGACG | 1.02
140 | CTAATCGGGA | 0.977
141 | CTAATCTCAT | 0.997
142 | CTAATGCAAT | 1.97
143 | CTAATTACTC | 1.04
144 | CTACAAGTA | 1.04
145 | CTACAGGGAT | 1.04
146 | CTACAGTCGA | 1.07
147 | CTACATGCTC | 1.03
148 | CTACCCAGGA | 1.3
149 | CTACCGGCTC | 1.14
150 | CTACGCCCAT | 3.21
151 | CTACGGGATA | 3.1
152 | CTACGTCGGT | 1.14
153 | CTACGTCTG | 1.05
154 | CTACGTTTTT | 2.97
155 | CTACTAATCA | 1
156 | CTACTATACA | 1.35

Row | Sequence | switch fluorescence ratio
157 | CTACTATACC | 1.4
158 | CTACTATCC | 1.76
159 | CTACTATT | 0.985
160 | CTACTCATGG | 1.01
161 | CTACTCCGAG | 1.33
162 | CTACTCTTAT | 1.05
163 | CTACTTTAGG | 0.983
164 | CTACTTTCCT | 1.3
165 | CTAGACAAGC | 0.992
166 | CTAGAGACGA | 0.995
167 | CTAGATAAGT | 0.988
168 | CTAGATTAAG | 0.951
169 | CTAGCAGCGG | 1.02
170 | CTAGCATGG | 1.05
171 | CTAGCCTGTG | 1
172 | CTAGCTGT | 0.995
173 | CTAGCTTTCA | 1.02
174 | CTAGGAAGGA | 1.02
175 | CTAGGACCTT | 1.17
176 | CTAGGGCCCC | 1.08
177 | CTAGGTAGAG | 0.988
178 | CTAGGTCCCG | 0.997
179 | CTAGGTCTAA | 1.01
180 | CTAGGTTGAA | 0.959
181 | CTAGGTTTT | 1.02
182 | CTAGTCTGTG | 1.01

Row | Sequence | switch fluorescence ratio
183 | CTAGTGTGGG | 0.996
184 | CTAGTTGTGT | 0.936
185 | CTATAACGG | 1.02
186 | CTATAATTGG | 0.964
187 | CTATAGAGAG | 0.991
188 | CTATAGCCCG | 1.04
189 | CTATATCGGT | 0.97
190 | CTATCAACGG | 0.985
191 | CTATCATAT | 1.02
192 | CTATCATCCG | 1.12
193 | CTATCCCTGT | 1.04
194 | CTATCCGGTG | 1.18
195 | CTATCTCCTC | 1.04
196 | CTATCTTATT | 0.986
197 | CTATGAAAAA | 1.07
198 | CTATGACATC | 0.988
199 | CTATGATATA | 1.01
200 | CTATGGAGCT | 1
201 | CTATGGGAGT | 0.942
